{"source": "PubChem BioAssay AID720542", "about": "(National Center for Advancing Translational Sciences (NCATS), 2013)", "note": "Out of some 360,000 compounds screened, about 740 (0.21%) were called active. Inconclusive results, whose numbers are uncertain, are shown with a selection of clear calls. Calls come from the whole dose curve; as a rule, active = well fitted inhibition curve with a large enough effect; inconclusive = small, poorly fitted or top-dose-only effect; inactive = no such curve, though single readings can be large or run the other way. Potencies of inconclusive entries are left out as doubtful fits. Potency is the fitted concentration of half-maximal effect; tags give direction and shape of the fitted curve.", "data": [{"test_system": "Plasmodium falciparum AMA1 (3D7) - RON2 peptide interaction", "assay": "qHTS for Inhibitors of AMA1-RON; Towards Development of Antimalarial Drug Lead: Primary Screen; note: nearly all actives have a fitted effect of over 45% in size;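 for activity change, negative = inhibition: 0% = vehicle wells and -100% = peptide control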", "details": "AlphaScreen AMA1-biotinylated RON2 peptide binding; activity change, negative = inhibition: at 58.2 µM (top of the series) unless noted", "summary_of_the_method": "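AMA1 (3D7) with his tag at 25 nM final met compounds first, then biotinylated RON2 peptide at 25 nM; detection used donor plus acceptor beads, 10 µg/mL apiece, read by AlphaScreen after 30 min at room temperature.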", "values": [{"smiles": "C=CCc1cc(Cl)ccc1OCCN1CC(C)OC(C)C1", "note": "(stereo not drawn)", "Potency": "inconclusive [inhibitor, partial curve]"}, {"smiles": "NC(=S)N=Nc1c(O)n(Cc2ccccc2)c2ccccc12", "activity change, negative = inhibition": "inactive: 45.3%"}, {"smiles": "CC(C)(C)c1cc(C(c2cccnc2)N2CCN(CCO)CC2)cc(C(C)(C)C)c1O", "note": "(stereo not drawn)", "Potency": "inconclusive [inhibitor, single point]"}, {"smiles": "COc1ccccc1/C=C/C=N/N1CCN(Cc2cccc3ccccc23)CC1", "Potency": "inconclusive [inhibitor, single point]"}, {"smiles": "Cn1nnc2c[n+](CC(=O)c3ccc(Cl)cc3)cc(Br)c21", "activity change, negative = inhibition": "inactive: -27.8%"}, {"smiles": "O=C(c1ccco1)N1CCN(Cc2cccc([N+](=O)[O-])c2)CC1", "Potency": "inconclusive [inhibitor, single point]"}, {"smiles": "CCOC(=O)C1=C(C)Nc2sc(C(=O)c3ccc(F)cc3)c(N)c2C1c1ccc(C(=O)OC)cc1", "note": "(stereo not drawn)", "activity change, negative = inhibition": "inactive: 33.3%"}, {"smiles": "CC1C(=O)N(Cc2cn(CCC3OCCO3)nn2)CCS(=O)(=O)N1Cc1ccc(-c2cccc(N(C)C)c2)cc1", "note": "(stereo not drawn)", "Potency": "inconclusive [inhibitor, single point]"}, {"smiles": "NC(=NCCc1c[nH]c2ccccc12)NS(=O)(=O)c1ccc2ccccc2c1", "Potency": "inconclusive [inhibitor, partial curve]"}, {"smiles": "O=C(Nc1ccccc1N1CCOCC1)c1ccc(N2CCCC2=O)cc1", "activity change, negative = inhibition": "inactive: -11%"}, {"smiles": "CCN(CC)CCSc1nc2ccccc2c(=S)n1-c1ccccc1", "Potency": "inconclusive [inhibitor, partial curve]"}, {"smiles": "Brc1ccc(-c2nnc(-c3ccccc3)c(N3CCSCC3)n2)cc1", "Potency": "inconclusive [inhibitor, full curve, poor fit]"}, {"smiles": "COc1cc(/C=N/NC(=O)NC2CCCCC2)ccc1O", "activity change, negative = inhibition": "inactive: 1.68%"}, {"smiles": "CN1C(=O)C2(OCC(COc3ccc(Cl)cc3)O2)c2ccccc21", "note": "(stereo not drawn)", "Potency": "inconclusive [inhibitor, single point]"}, {"smiles": "COc1cccc(NC(=S)NCc2ccc3c(c2)cc(C)n3C)c1", "Potency": "inconclusive [inhibitor, single point]"}, {"smiles": "CCCN1CCN(CC(=O)Nc2cc(OCC)ccc2OCC)CC1", "Potency": "inconclusive [inhibitor, partial curve]"}, {"smiles": "c1cc(CNCCc2ccc3c(c2)OCO3)ccn1", "Potency": "inconclusive [inhibitor, single point]"}, {"smiles": "COc1ccc(C(=O)c2ccc([N+](=O)[O-])cc2Cl)cc1", "Potency": "inconclusive [inhibitor, partial curve]"}, {"smiles": "CC1(C)C2CCC1(C)C(NCC(O)COc1ccc(C#N)cc1)C2", "note": "(stereo not drawn)", "Potency": "inconclusive [inhibitor, single point]"}, {"smiles": "O=C(CN1C(=O)CC(c2ccco2)Sc2ccccc21)Nc1ccccc1F", "note": "(stereo not drawn)", "activity change, negative = inhibition": "inactive: -3.63%"}, {"smiles": "O=C(c1ccc(S(=O)(=O)N2CCC(c3nc4ccccc4[nH]3)CC2)cc1)N1CCOCC1", "Potency": "inconclusive [inhibitor, single point]"}, {"smiles": "CCCCNC(=S)NNC(=O)c1csc(C(C)C)c1", "activity change, negative = inhibition": "inactive: 63.9%"}, {"smiles": "CCC(=O)OC1(C)C(=O)C2=COC(c3ccc(OC)cc3)=CC2=C(Br)C1=O", "note": "(stereo not drawn)", "Potency": "inconclusive [inhibitor, partial curve]"}, {"smiles": "COc1ccc(Nc2ccnc(Nc3ccc(OC)cc3)n2)cc1", "Potency": "inconclusive [inhibitor, partial curve]"}, {"smiles": "NC(=O)c1cccnc1Oc1ccc(Cl)cc1", "Potency": "inconclusive [inhibitor, partial curve]"}, {"smiles": "Cc1cccc2nc(-c3ccccc3)c(-c3ccc(CN4CCC(n5c(=O)[nH]c6ccccc65)CC4)cc3)nc12", "Potency": "inconclusive [inhibitor, partial curve]"}, {"smiles": "COc1cc(/C=C/[N+](=O)[O-])ccc1OCc1cccc(C(=O)O)c1", "Potency": "inconclusive [inhibitor, single point]"}, {"smiles": "COc1ccc(O)c(CN2CCCC(C(=O)c3sccc3C)C2)c1", "note": "(stereo not drawn)", "Potency": "inconclusive [inhibitor, single point]"}, {"smiles": "N#CCC(CNc1ncc(C(F)(F)F)cc1Cl)OC(=O)c1ccc(Cl)cc1Cl", "note": "(stereo not drawn)", "activity change, negative = inhibition": "inactive: 20.7%"}, {"smiles": "CCCCOP(=O)(c1ccc(N(C)C)cc1)C(Nc1ccccc1)c1ccccc1", "note": "(stereo not drawn)", "Potency": "inconclusive [inhibitor, single point]"}, {"smiles": "Cc1ccc(CC(=O)NNC(=O)c2cccs2)cc1C", "activity change, negative = inhibition": "inactive: 48.9%"}, {"smiles": "CCC(=O)Nc1ccc(C(=O)COC(=O)c2nc3nccc(C)n3n2)cc1", "Potency": "inconclusive [inhibitor, partial curve]"}, {"smiles": "C=C1C(C(=O)Nc2ccc(OC)cc2)C1C(=O)Nc1ccc(OC)cc1", "note": "(stereo not drawn)", "activity change, negative = inhibition": "inactive: -4.92%"}, {"smiles": "COC(=O)CCC(=O)OC1(C)C(=O)C2=CN(CC3CC3)C(c3ccc(OC)cc3)=CC2=C(Br)C1=O", "note": "(stereo not drawn)", "Potency": "inconclusive [inhibitor, single point]"}, {"smiles": "COCCN(C(=O)COC(=O)c1c(NC(C)=O)sc(C)c1C)c1c(N)n(Cc2ccccc2)c(=O)[nH]c1=O", "activity change, negative = inhibition": "inactive: 5.29%"}, {"smiles": "CN1CCN(CCCNC(=O)c2ccc3c(Cl)c4c(nc3c2)CCCC4)CC1", "activity change, negative = inhibition": "inactive: -2.17%"}, {"smiles": "COc1ccc(C(O)CNc2ccc(C)cc2)cc1", "note": "(stereo not drawn)", "Potency": "inconclusive [inhibitor, single point]"}, {"smiles": "Cc1ccsc1CN1CCN(c2ccccn2)CC1", "Potency": "inconclusive [inhibitor, partial curve]"}, {"smiles": "Cc1nc(N)sc1-c1csc(N(C)c2ccc(O)cc2)n1", "activity change, negative = inhibition": "inactive: 22.5%"}, {"smiles": "O=C1c2ccccc2C(=O)c2c(NCCCN(CCO)CCO)cccc21", "Potency": "inconclusive [inhibitor, partial curve]"}, {"smiles": "Cc1ccc(CN2CCN(/N=C/C=C/c3ccccc3[N+](=O)[O-])CC2)cc1", "Potency": "inconclusive [inhibitor, partial curve]"}, {"smiles": "CCN(CCCNC(=O)C1CCC(=O)N1Cc1ccccc1Cl)c1cccc(C)c1", "note": "(stereo not drawn)", "Potency": "inconclusive [inhibitor, partial curve]"}, {"smiles": "CC1=C(C#N)C(C(F)(F)F)(C(F)(F)F)N=C(c2ccco2)N1", "activity change, negative = inhibition": "inactive: 3.49%"}, {"smiles": "COc1ccc(C(=O)NNC(=O)c2ccc3ccccc3n2)cc1", "activity change, negative = inhibition": "inactive: 53.6%"}, {"smiles": "Cc1cc(C)cc(N(CC(=O)Nc2ccc(C(F)(F)F)cc2)S(=O)(=O)c2c(C)[nH]c(=O)[nH]c2=O)c1", "activity change, negative = inhibition": "inactive: 10.6%"}, {"smiles": "Cc1ccc(NC(=O)CCN2CCN(C/C=C/c3ccccc3)CC2)cc1", "activity change, negative = inhibition": "inactive: 5.17%"}, {"smiles": "COc1ccc(OC)c(/C=C/C(=O)N2CCCc3ccccc32)c1", "Potency": "inconclusive [inhibitor, single point]"}, {"smiles": "CC(NC(=O)c1ccc(Cl)cc1)c1nnc(SCc2ccc([N+](=O)[O-])cc2)n1C", "note": "(stereo not drawn)", "Potency": "inconclusive [inhibitor, single point]"}, {"smiles": "O=C(CCNC(=O)c1ccccc1)NCC1CCCCC1", "activity change, negative = inhibition": "inactive: -6.2%"}, {"smiles": "COc1ccc2c(c1)Cc1sc(NC(=O)c3ccccc3)nc1-2", "activity change, negative = inhibition": "inactive: 25.8%"}, {"smiles": "CCOC(=O)C1=NN(c2ccc(C)cc2)C2(S1)SC(C(C)=O)=C(C)N2c1ccccc1", "note": "(stereo not drawn)", "Potency": "inconclusive [inhibitor, partial curve]"}, {"smiles": "CCN(CC)c1ccc(NC(=O)CCS(=O)(=O)c2cccc3nsnc23)c(C)c1", "Potency": "inconclusive [inhibitor, partial curve, poor fit]"}, {"smiles": "COc1ccccc1NC(=O)c1ccc(NC(=O)c2nc3nccc(C)n3n2)cc1", "activity change, negative = inhibition": "inactive: -2.45%"}, {"smiles": "CCOC(=O)c1cnn2c(N)c(C#N)nnc12", "activity change, negative = inhibition": "inactive: 20.2%"}, {"smiles": "CCCCOc1ccc(C(=O)NCC2(c3ccccc3)CCOCC2)cc1", "activity change, negative = inhibition": "inactive: 5.7%"}, {"smiles": "CC1CC(C)CN(C(=O)c2ccc3c(c2NCCO)C(=O)c2ccccc2C3=O)C1", "note": "(stereo not drawn)", "Potency": "active: 22.4 µM"}, {"smiles": "CN(C)c1ccc(C2/C(=C(/O)c3ccc(Br)cc3)C(=O)C(=O)N2C)cc1", "note": "(stereo not drawn)", "Potency": "inconclusive [inhibitor, single point]"}, {"smiles": "Cc1cccc(C(=O)NC2CCN(CC(=O)Nc3ccccc3Cl)CC2)c1", "activity change, negative = inhibition": "inactive: 4.93%"}, {"smiles": "CCOc1ccc(CNc2cccc(SC)c2)cc1", "Potency": "inconclusive [inhibitor, partial curve]"}, {"smiles": "CCN(CC)c1ccc(C2CC(=O)Nc3cc(OC)c(OC)cc32)cc1", "note": "(stereo not drawn)", "Potency": "inconclusive [inhibitor, partial curve]"}, {"smiles": "COc1ccc(Cc2cc(NCc3ccccc3)c3ncn(C(C)C)c3c2)cc1", "Potency": "inconclusive [inhibitor, single point]"}, {"smiles": "O=C(NCCn1c(C(F)(F)F)nc2cc(C(F)(F)F)ccc21)[C@H]1CCCN1c1nc(CN2CCCCC2)cs1", "activity change, negative = inhibition": "inactive: 3.96%"}, {"smiles": "CN(C)c1ccc(/C=C/C(=O)c2cccnc2)cc1", "activity change, negative = inhibition": "inactive: 29.1%"}, {"smiles": "O=C1c2ccccc2C(=O)N1CCCCCCN1C(=O)c2ccccc2C1=O", "Potency": "inconclusive [inhibitor, single point]"}, {"smiles": "OCCN1CCN(CCCN2c3ccccc3Sc3ccc(Cl)cc32)CC1", "Potency": "inconclusive [inhibitor, partial curve]"}, {"smiles": "O=C(Nc1ccccc1)NN(C(=O)CCl)c1ccccc1", "activity change, negative = inhibition": "inactive: -4.63%"}, {"smiles": "CCOC(=O)N1CCN(CC(O)c2ccc3c(c2)CCN3)CC1", "note": "(stereo not drawn)", "activity change, negative = inhibition": "inactive: -12.8%"}, {"smiles": "COCOc1ccc(/C=C/C(=O)c2c(O)cc(OCOC)cc2OCOC)cc1", "Potency": "inconclusive [inhibitor, partial curve]"}, {"smiles": "Cc1cccc(C)c1NC(=O)N1CCN(c2nc3ccccc3s2)CC1", "activity change, negative = inhibition": "inactive: 5.63%"}, {"smiles": "O=C(COC(=O)c1ccccc1[N+](=O)[O-])NCCCc1ccccc1", "activity change, negative = inhibition": "inactive: 4.7%"}, {"smiles": "COc1cc2cc3c(N)c(C(=O)NCc4ccco4)sc3nc2cc1OC", "activity change, negative = inhibition": "inactive: -8.58%"}, {"smiles": "CCOc1cc2c(cc1OCC)-n1cccc1C(c1cccc(F)c1)NC2", "note": "(stereo not drawn)", "Potency": "inconclusive [inhibitor, partial curve]"}, {"smiles": "O=C(Cn1nc(-c2ccccc2)ccc1=O)Nc1ccc(N2CCN(C(=O)c3cccs3)CC2)cc1", "Potency": "inconclusive [inhibitor, full curve, poor fit]"}]}]}
